# Values joined by “and” are separate entries in the source; they are usually repeats but may differ in a detail not shown here. Equal entries are not always repeated.
# Details: Escherichia coli (strain K12); pH 7; 25 °C; GdnHCl; Fluorescence; phosphate 10 mM; reversible: yes
substance,measurement,value
Thioredoxin 1 wild type (sequence not shown),denaturant m value,3.7 kcal/mol/M and 3.6 kcal/mol/M
same,denaturant midpoint (higher = more stable),2.6 M and 1.7 M
same,unfolding free energy,9.6 kcal/mol and 6.2 kcal/mol

# Reference: FireProtDB (doi:10.1021/bi050921s)
